# According to paper PMC4336329 (PLoS ONE, 2015):
# In all, about 310,000 compounds went through this assay and about 14,000 (4.5%) showed an effect of 50% or more. The effect is printed as a negative number. The list shows a part of the results.
# Target: human ether-à-go-go-related gene (hERG) potassium channel (human, UniProt Q12809)
# Assay: primary screen, population patch clamp on CHO cells stably expressing hERG
# 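Further: peak tail current of the secondary pulse compared with the same well before compound.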
# Chain of human ether-à-go-go-related gene (hERG) potassium channel (Q12809 whole entry, looked up): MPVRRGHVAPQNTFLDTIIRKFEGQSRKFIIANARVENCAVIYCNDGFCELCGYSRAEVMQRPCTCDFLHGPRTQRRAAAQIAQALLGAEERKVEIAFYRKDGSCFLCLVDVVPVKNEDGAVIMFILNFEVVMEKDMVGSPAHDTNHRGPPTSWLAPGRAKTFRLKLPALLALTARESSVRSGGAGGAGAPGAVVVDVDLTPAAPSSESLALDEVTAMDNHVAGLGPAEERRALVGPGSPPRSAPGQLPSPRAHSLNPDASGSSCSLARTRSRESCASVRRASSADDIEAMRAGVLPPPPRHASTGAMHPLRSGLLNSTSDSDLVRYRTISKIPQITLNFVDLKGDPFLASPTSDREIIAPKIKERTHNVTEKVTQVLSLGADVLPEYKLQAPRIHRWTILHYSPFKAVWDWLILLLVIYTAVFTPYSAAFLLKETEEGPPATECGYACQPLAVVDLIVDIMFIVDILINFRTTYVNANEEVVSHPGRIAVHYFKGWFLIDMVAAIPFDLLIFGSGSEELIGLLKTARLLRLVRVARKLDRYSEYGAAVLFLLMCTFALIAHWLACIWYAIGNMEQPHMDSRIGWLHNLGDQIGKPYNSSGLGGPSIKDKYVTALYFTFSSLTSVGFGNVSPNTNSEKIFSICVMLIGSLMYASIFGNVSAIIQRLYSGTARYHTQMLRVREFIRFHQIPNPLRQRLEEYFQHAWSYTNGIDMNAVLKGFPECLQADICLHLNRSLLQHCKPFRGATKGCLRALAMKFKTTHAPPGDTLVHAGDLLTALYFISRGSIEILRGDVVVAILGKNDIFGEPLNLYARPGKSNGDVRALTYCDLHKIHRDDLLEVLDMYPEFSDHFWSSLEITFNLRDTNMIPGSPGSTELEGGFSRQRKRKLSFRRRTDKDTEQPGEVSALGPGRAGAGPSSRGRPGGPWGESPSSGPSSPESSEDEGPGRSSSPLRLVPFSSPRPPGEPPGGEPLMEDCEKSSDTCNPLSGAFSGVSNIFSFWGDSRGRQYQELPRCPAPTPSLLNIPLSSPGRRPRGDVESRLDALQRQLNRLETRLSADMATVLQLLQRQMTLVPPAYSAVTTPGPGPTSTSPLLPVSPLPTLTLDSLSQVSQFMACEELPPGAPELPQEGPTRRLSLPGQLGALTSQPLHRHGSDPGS
row,Structure (SMILES),"hERG current change (%, negative = inhibition) at 10uM [%]"
1,O=C(Nc1ccc(S(=O)(=O)Nc2nccs2)cc1)c1cc(=O)[nH]c2ccccc12,15.6
2,O=C(CN1CCCC1)Nc1ccc(S(=O)(=O)N2CCCCC2)cc1,4.2
3,COC(=O)c1c(C)oc2ccc(N(C(=O)c3ccncc3)S(=O)(=O)c3ccc(C)cc3C)cc12,-1.99
4,O=C(c1ccncc1)N1CCN(S(=O)(=O)c2cccc(Cl)c2)CC1,-13.3
5,CCc1ccc(NC(=O)C(C)OC(=O)CC(NC(C)=O)c2ccccc2)cc1 (stereo not drawn),-2.09
6,Cc1ccc(C)c(NC(=O)c2cnn3ccccc23)c1,11
7,CCOc1ccc2nc(N(CCN(CC)CC)C(=O)c3ccc([N+](=O)[O-])cc3)sc2c1.Cl,-65.7
8,Cn1c(=O)c2c(ncn2CC(=O)OCC(=O)NNC(=O)c2ccc(Cl)cc2)n(C)c1=O,-4.15
9,O=c1ccnc(S/C=C/c2ccccc2)[nH]1,-26.6
10,CCCCCCCCCCCCN1[C@@H](CC(C)=O)c2cc(C(F)(F)F)ccc2S1(=O)=O,17.7
11,CC(C)OC(=O)NCCOC(=O)Nc1ccc(Cl)c(Cl)c1,-10.9
12,O.O=CC(=O)c1ccccc1,25.8
13,O=C(NNC(=O)c1ccco1)Nc1ccccc1,7.95
14,Cc1ccc(/C=N/N2CCN(C3c4ccccc4-c4ccccc43)CC2)s1,0.486
15,O=C(NC1CCCCC1)N1CCN(c2ccccc2)CC1,-0.0694
16,O=C1NC[C@@H](Cc2cccc3ccccc23)N(CCCCC2CCCCC2)C1=O,12.7
17,COc1ccc(C2C(C(=O)Nc3cc(OC)c(OC)c(OC)c3)c3ccccc3C(=O)N2C)cc1OC (stereo not drawn),7.71
18,COc1ccccc1-c1c(C)nn2c(N3CCC(C(N)=O)CC3)cc(C)nc12,10.5
19,Cc1nnc(NC(=O)CSc2nnc(CCc3nc4ccccc4[nH]3)n2C)s1,-4.75
20,Cl.c1ccc2c3c([nH]c2c1)CCNC3,13.7
21,COc1ccc(Br)cc1C(=O)Nc1ccc(O)cc1,-13.5
22,CCCc1cc(=O)oc2cc(OC(C)C(=O)NC3CC(C)(C)NC(C)(C)C3)ccc12 (stereo not drawn),-45.9

row,Structure (SMILES),"hERG current change (%, negative = inhibition) at 10uM [%]"
1,CCOC(=O)C(=Cc1ccc(-c2ccsc2C(=O)OC)o1)C(=O)OCC,-8.29
2,COc1cc(S(=O)(=O)N2CCOCC2)ccc1NC(=O)c1cc2c(s1)CCC2,-15.3
3,COc1ccccc1N1CCN(C2CCCN(Cc3c(F)cccc3F)C2)CC1 (stereo not drawn),-16.3
4,CC1=C(C(=O)Nc2ccc(Cl)cc2)C(c2cccs2)n2nnnc2N1 (stereo not drawn),-18.7
5,Cc1cccc(NC(=O)CCCn2c(=S)[nH]c3ccccc3c2=O)c1,4.4
6,COc1ccccc1NS(=O)(=O)c1ccc(C(=O)OCC(=O)NCc2ccco2)cc1,7.71
7,Cc1ccccc1CN1CCCOCCS1(=O)=O,-0.4
8,COc1cccc(NC(=S)N2CCN(S(=O)(=O)c3ccccc3)CC2)c1,-2.98
9,Cn1c(=O)c2c(nc(CN3CCc4ccccc4C3)n2Cc2cccc(Cl)c2)n(C)c1=O,-53.9
10,C=C1C(=O)O[C@@H]2C[C@@H](C)[C@@H]3C=CC(=O)[C@@]3(C)[C@@H](O)[C@H]12,-2.06
11,Br.COc1ccc(-c2csc(=NCCO)n2-c2ccccc2)cc1,-35.6
12,CCn1cc(C(=O)NCCC(C)C)c(=O)c2cc(S(=O)(=O)N3CCCCC3)ccc21,-7.53
13,COC(=O)c1ccccc1NC(=O)c1c(Br)cnn1C,-4.63
14,Cc1cccc(-n2c(SCC(=O)N3CCCC3)nc3n[nH]c(C)c3c2=N)c1,-9.34
15,COc1cccc(OC)c1C(=O)Nc1cc2c(cc1N1CCOCC1)n(C)c(=O)n2C,13.2
16,COc1ccc(Br)cc1CNc1ccc(S(N)(=O)=O)cc1,-14.1
17,COc1cc(/C=C/C(=O)O)cc(S(=O)(=O)Nc2ccc(F)cc2)c1OC,20.4
18,CC1(C)Cc2c(sc3nc(-c4ccccc4)oc(=O)c23)CO1,10.3
19,COC(=O)C1=C(c2ccc(-c3ccccc3)c(F)c2)C[C@@H]2CC[C@H]1N2C(=O)NC1CC1,-12.3
20,O=C(CCN1C(=O)/C(=C/c2ccccc2)SC1=S)NNC(=O)c1cccnc1,15.1
21,COc1ccc(-n2nnnc2SCC(=O)Nc2ccccc2N2CCOCC2)cc1,-41.2
22,COc1ccc2[nH]cc(CCNC(=O)C3CC(=O)N(c4ccc(Cl)cc4)C3)c2c1 (stereo not drawn),-10.4

row,Structure (SMILES),"hERG current change (%, negative = inhibition) at 10uM [%]"
1,O=C(Cn1nc(-c2ccc(Cl)cc2)c2ccccc2c1=O)Nc1cccnc1,-10.3
2,COc1cccc(-c2cc(C(=O)N3CC4(C)CC3CC(C)(C)C4)no2)c1 (stereo not drawn),-10.3
3,Cc1cc(NS(=O)(=O)c2ccc(NC(=O)/C=C/c3cccc(Cl)c3)cc2)no1,14.2
4,O=C(/C=C/c1cccs1)N1CCC2(CC1)Oc1ccc(Cl)cc1C(=O)C21CC(c2ccccc2)=NO1 (stereo not drawn),22.9
5,O=C(COc1coc(CN2CCc3ccccc3C2)cc1=O)Nc1ccccc1F,3.54
6,O=C1CSC(c2ccncc2)N1Cc1ccc(F)cc1 (stereo not drawn),1.53
7,Cc1cccc(NS(=O)(=O)c2ccc(C(=O)NCC3(N4CCCCC4)CCCCC3)cc2)c1C,-48.8
8,CC(=O)c1sc(NC(=O)C2CSC3(C)CCC(=O)N23)nc1-c1ccccc1 (stereo not drawn),-5.06
9,Cc1cc(C)c(NS(=O)(=O)c2c(C)noc2C)c(C)c1,-0.686
10,COc1ccc(/C=C/C=C2\NC(=S)NC2=O)cc1,22.1
11,O=C(CSc1ncn[nH]1)Nc1ccc2c(c1)OCCO2,-26.9
12,CCC(=Nc1cccc(C(F)(F)F)c1)c1c(O)n(C)c(=O)n(C)c1=O,4.97
13,Cc1ccc(-c2csc(NC(=O)CSc3nc4ccccc4o3)n2)cc1,14.2
14,CCc1nc2cccnc2n1-c1ccc(CC(=O)O)cc1,12.9
15,O=C(COC(=O)C1CCN(c2ccc(C(F)(F)F)cn2)CC1)c1cccc(Br)c1,22.7
16,O=C(COC(=O)CCC(=O)c1cccs1)Nc1cccc(S(=O)(=O)N2CCOCC2)c1,-20.6
17,NS(=O)(=O)c1ccc(NN=C2CCCCC2)c([N+](=O)[O-])c1,9.16
18,O=C(c1cccs1)N1N=C(c2ccc(O)cc2)CC1c1ccccc1 (stereo not drawn),3.42
19,O=C(COC(=O)C12CC3CC(CC(C3)C1)C2)NCCc1ccccc1,-10.1
20,O=C(Nc1nc2ccc(F)cc2s1)c1cccs1,14.3
21,CCNc1nc(SCc2ccccc2)nc(N2CCOCC2)n1,-48.8
22,O=C1CCCCC1,10.5

row,Structure (SMILES),"hERG current change (%, negative = inhibition) at 10uM [%]"
1,COc1cc2c(cc1NC(=O)c1ccccc1F)CCCC2,17.5
2,Cc1ccc(-c2cc(-c3ccc(C)cc3)[n+](-c3ccc(C(=O)O)cc3)c(-c3ccc(C)cc3)c2)cc1.[O-][Cl+3]([O-])([O-])[O-],26.5
3,CCOc1ccc(OCC(=O)OCC(=O)N(CC(C)C)c2c(N)n(Cc3ccccc3)c(=O)[nH]c2=O)cc1,-4.66
4,CCOC(=O)c1ccc(NCc2ccc(N(C)C)cc2)cc1,10.3
5,Cc1ccc(-c2cc(C(=O)NCc3ccccn3)no2)cc1,0.477
6,CN(C)c1ccc(/C=N/NC(=O)CCCO)cc1,24.4
7,NS(=O)(=O)c1cc2c(cc1Cl)NC(c1ccccc1OCC(=O)O)NS2(=O)=O (stereo not drawn),19
8,Cl.O=C(CCN1CCC(c2ccccc2)C1)c1ccccc1 (stereo not drawn),-35.8
9,CNc1cc([N+](=O)[O-])ccc1N/C=C/C(=O)c1ccc2c(c1)OCO2,0.518
10,CCCCN1C(=O)c2cccc3cc(O)cc(c23)C1=O,-4.44
11,O=C(CCO)c1ccc(O)cc1,10.6
12,COc1ccc(/C=N/NC(=O)c2ccc(OC)c(OC)c2)cc1COc1c(F)c(F)c(F)c(F)c1F,5.91
13,CC(NC(=O)Cc1ccsc1)c1ccc(S(N)(=O)=O)cc1 (stereo not drawn),7.74
14,O=C(Nc1cccc(S(=O)(=O)N2CCCC2)c1)c1cccnc1,6
15,CCn1c2ccccc2c2cc(NC(=O)CC(C)=O)ccc21,-3.43
16,NC(=O)CSc1nc2ccccc2n1Cc1ccccc1F,-19.5
17,CC(C)N(C(=O)Cn1cc(S(=O)(=O)CC(=O)N2CCOCC2)c2ccccc21)C(C)C,1.25
18,Cc1ccc(C2C(C(=O)c3ccco3)=C(O)C(=O)N2c2nnc(C)s2)cc1 (stereo not drawn),-0.374
19,CC12C=CC3(CN(Cc4ccccc4)C(=O)C3C1C(=O)NC1CC1)O2 (stereo not drawn),15.7
20,O=C(NCCCN1CCOCC1)c1cc2ccccc2oc1=O,-24.4
21,COc1cc(/C=N/Nc2ccc(Cl)cc2)ccc1OC(=O)c1cccs1.Cl,24.6
